Sequences with one replicate were seen in a single cluster, so their values are uncertain.
System: ATP
Experiment: switch fluorescence ratio, 500 uM ATP over buffer (Cy3 cluster intensity, sum of 5 cycles each) (fold (ratio)); higher = stronger signal-on switching upon ATP binding; sequences stand for … in TCGTCGGCAGCGTCAGATGTGTATAAGAGACAGTTTTTTTTTTTTTTTTTTTTTTTTT…TC
Details: aptamer strand: ATP DNA aptamer (quencher-CACCTGGGGGAGTATTGCGGAGGAAGG + anchor), 100 nM annealed; ATP concentration: 500 uM; one replicate
Procedure, shortened: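 The quencher-labelled ATP aptamer, at 100 nM, was annealed to Cy3-labelled switching-strand clusters on a modified Illumina MiSeq flow-cell. The clusters were imaged in selection buffer, then after 15 min with 500 uM ATP at 22 °C, and this buffer/ATP cycle ran five times with NaOH stripping and re-annealing between runs. Per-cluster fluorescence ratios, summed target-cycle over summed buffer-cycle Cy3 intensity, were averaged per switch-domain sequence. Clusters outside 100-1000 RFU were excluded.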
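Also: ATP exposure 15 min at 22 °C before imaging.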

| Sequence | switch fluorescence ratio |
| --- | --- |
| TTCAATTCGT | 1.03 |
| GTCAGACTCA | 1.02 |
| CTTAGGCTTC | 1.03 |
| AGTGCGCTTA | 0.965 |
| CATCAAGAGC | 1.09 |
| GGGGGAATTC | 1.01 |
| AGGGTGTCT | 1.01 |
| TTCGGAGCCG | 1.1 |
| GGGCATTGGC | 1.07 |
| TTTAGCACCT | 1.18 |
| GGTTGAGCGC | 1.1 |
| TTTAGCGTAC | 1.78 |
| GGGGCCAAAG | 0.99 |
| ATCCGACCAA | 4.3 |
| GTCGATGCTG | 1.01 |
| GGTTCACCTC | 0.953 |
| TCCGATCTGT | 1.11 |
| TTTCAGATAC | 1.13 |
| GATGAAATCG | 1.03 |
| CGTAACTGAT | 0.979 |
| ACATCTATAC | 1.24 |
| AGAAGATTAG | 0.988 |
| ACCAAACACA | 1.17 |
| AGTTAGTAGA | 0.998 |
| TCGTATCTG | 0.878 |
| GAGGAAGCTT | 1.02 |

| Sequence | switch fluorescence ratio |
| --- | --- |
| GCTCATTTTG | 1 |
| GCGTTTTGA | 1.07 |
| ACCCTCTGTA | 1.04 |
| CCAAGCTTTC | 3.31 |
| ATTTGCTCTA | 0.988 |
| AGTGAGTATA | 1.02 |
| TAATTGGGCG | 0.983 |
| GTCCCCTGGC | 1.2 |
| TTCACGGTT | 1.06 |
| CATGCAAGCC | 2.88 |
| GCATAGTTGC | 1.03 |
| CCGATCAGAT | 1.39 |
| TACAATCAGT | 1.03 |
| AATGTTTACT | 1.02 |
| AGCGATGAAC | 1.55 |
| TGAGGACCCA | 1.03 |
| ATATTCAGCT | 0.933 |
| CTGCATTGCG | 1.12 |
| CGCCTCGCCA | 1.07 |
| AACAGTATGA | 1.02 |
| GGGTCGTAGA | 1.03 |
| CAGCTAGGAT | 0.993 |
| ACAAGGCGAC | 1.06 |
| CGTATTGGTT | 1.01 |
| TACGGGTACA | 1.16 |
| GGCAGAGAAG | 0.972 |

| Sequence | switch fluorescence ratio |
| --- | --- |
| TTACTCCGAG | 1.78 |
| TCCAAGGAGT | 1.01 |
| GTTAGGTTCT | 1.02 |
| ACTATACCCC | 2.9 |
| TTTGCTTTAG | 0.963 |
| CTCTAAATG | 1.1 |
| TTGTGACGCT | 0.998 |
| CCCCCTCTCC | 1.75 |
| ACCCGTTAAA | 1.03 |
| CATCATAATT | 1.01 |
| ACGAGTAATG | 1.03 |
| GGTCACTTG | 0.98 |
| GGGCCCACAC | 0.969 |
| ACCCGGTCGT | 1.03 |
| CAGCACCCAC | 1.58 |
| GAATACAACC | 1.07 |
| GGAAGCAGGC | 0.522 |
| CCCGCTTCTA | 1.29 |
| ACATAATATA | 1.03 |
| TTACCGAGGA | 1.03 |
| AAGAGGGAGC | 0.998 |
| CTAGGAGGAG | 0.981 |
| CAAACTCGAC | 1.11 |
| GCCGTCTTTG | 0.99 |
| ATAAAATCA | 0.968 |

— the supplement of paper PMC10126150
